Measured values reported in PubChem BioAssay AID1240 (Sanford-Burnham Center for Chemical Genomics, 2008).
About 800 (1.6%) of roughly 50,000 compounds showed an effect of 50% or more. This is one part of the list.

target: Bcl-2-like protein 10 (Homo sapiens) (UniProt Q9HD36); assay: Phenotype converters, Bcl-B/TR3 peptide binding displacement, primary biochemical FP (AID 1240); settings: GST-Bcl-B / FITC-TR3 peptide fluorescence polarization; stronger effect = higher value; compound at 3.75 mg/L;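 note: 0% = Bcl-B with tracer peptide and DMSO and 100% = tracer peptide lacking Bcl-B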
Sequence of UniProt Q9HD36 (Q9HD36 whole entry, looked up): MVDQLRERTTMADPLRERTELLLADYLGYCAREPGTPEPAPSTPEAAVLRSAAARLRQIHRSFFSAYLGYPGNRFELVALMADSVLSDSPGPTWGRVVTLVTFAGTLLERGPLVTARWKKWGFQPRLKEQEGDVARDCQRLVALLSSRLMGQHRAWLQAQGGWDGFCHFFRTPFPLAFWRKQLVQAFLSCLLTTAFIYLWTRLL

Row | SMILES | displacement [%]
1 | COc1ccc(C2C(C#N)=C(N)OC3=C2C(=O)CC(C)(C)C3)c2ccccc12 (stereo unspecified) | -6
2 | c1ccc(Oc2cccc(OCCCCCCN3CCOCC3)c2)cc1 | 6.9
3 | COc1ccc(S(=O)(=O)N2CCN(C3CCCC(C)C3)CC2)cc1 (stereo unspecified) | 10.6
4 | CCOc1cccc(C(=O)Nc2nnc(C(c3ccccc3)c3ccccc3)s2)c1 | 15.1
5 | Cc1ccc(OCC(=O)Nc2sc3c(c2C(N)=O)CCC(C)C3)cc1C (stereo unspecified) | 1.8
6 | CCN(CC)C(=O)c1sc(NC(=O)COc2ccc3ccccc3c2)c(C(=O)OC(C)C)c1C | 11.4
7 | COC(=O)c1c(C)oc2ccc(NS(=O)(=O)c3cccc([N+](=O)[O-])c3)cc12 | 2
8 | O=C(c1ccc2c(c1)OCCO2)N1CCN(c2ccc([N+](=O)[O-])cc2Cl)CC1 | 1.2
9 | COc1ccc(Br)cc1C(=O)Nc1ccc(Cl)cn1 | 15.6
10 | O=C(Nc1nc2ccc(Cl)cc2s1)c1ccccc1F | 6.5
11 | O=[N+]([O-])c1ccc(CNC2CCCc3ccccc32)cc1 (stereo unspecified) | -1.1
12 | O=C(c1cccs1)N1CCN(c2cc(N3CCCCC3)c(F)cc2[N+](=O)[O-])CC1 | -5.9
13 | CC1(C)Cc2ccccc2C(/C(=N\O)C(=O)c2ccccc2)=N1 | 13.1
14 | N/C(Cc1ccc([N+](=O)[O-])cc1)=N\OC(=O)c1cccc(I)c1 | 12.3
15 | CCOC(=O)c1c(NC(=S)NCCc2ccccc2)sc2c1CC(C)(C)OC2 | -8.3
16 | O=C(Nc1ccccc1)c1cc(Br)ccc1Cl | 18.4
17 | O=C1N=c2ccc(Cl)cc2=C1c1sc(=O)n(-c2ccccc2)c1O | -23.7
18 | CCc1ccccc1NC(=O)c1c(NC(=O)c2cccs2)sc2c1CCC2 | -3.8
19 | COC(=O)c1c(C)oc2ccc(OCC(N)=O)cc12 | 11.7
20 | C=CCN1C(=O)/C(=C\c2ccc(OCc3cccc4ccccc34)cc2)SC1=S | 87.1
21 | Cc1ccc(C)c(N(CC(=O)Nc2cc(Cl)ccc2C)S(=O)(=O)c2ccccc2)c1 | -7.5
22 | O=C(N/N=C/c1ccncc1)c1cc(-c2ccccc2)n[nH]1 | -11.4
23 | COc1ccccc1NC(=O)/C(=C/c1cccc([N+](=O)[O-])c1)NC(=O)c1ccccc1 | 2.3

Row | SMILES | displacement [%]
24 | COc1ccc2oc(C)c(C(O)c3ccccc3)c2c1 (stereo unspecified) | 0.2
25 | CCc1ccccc1N(CC(=O)NCCc1ccccc1)S(C)(=O)=O | 2.8
26 | COCCOC(=O)c1ccc(NC(=O)Nc2ccc(Cl)cc2)cc1 | 2.8
27 | O=c1cc(-c2ccccc2)nc(NNc2ccccc2)[nH]1 | -4.1
28 | O=C(NC(=S)N1CCOCC1)C12CC3CC(CC(C3)C1)C2 | 3.6
29 | Cc1ccc(N(CC(=O)O)S(=O)(=O)c2ccc(F)cc2)cc1 | 8.4
30 | COC(=O)COc1ccc(/C=C2\C(=O)NC(=O)N(c3ccc(OC)cc3)C2=O)cc1OC | -17.1
31 | O=C(O)COc1ccc(N2C(=O)c3ccc(C(=O)O)cc3C2=O)cc1 | 8.1
32 | COc1ccc(C(=O)Nc2cccc(C(=O)Nc3cccc(Cl)c3)c2)cc1 | -9.3
33 | COC(=O)COc1ccc(/C=C2\C(=O)NC(=O)N(c3ccc(Br)cc3)C2=O)cc1OC | 7.5
34 | COC(=O)C1=C(C)N=c2s/c(=C\c3cc(Br)c(OC)cc3OC)c(=O)n2C1c1ccccc1 (stereo unspecified) | 15.7
35 | COc1cc2ccccc2cc1C(=O)Nc1ccc2[nH]c(=O)[nH]c2c1 | 7.3
36 | COC(=O)c1ccccc1NC(=O)/C=C/c1ccccc1 | 16.4
37 | Cc1nnc(C)n1/N=C\c1ccc(C(F)(F)F)cc1 | -10
38 | CC(CO)(CO)Nc1ccc(C(F)(F)F)cc1[N+](=O)[O-] | -4.5
39 | O=C(Nc1ccc(Cl)cc1)c1cc2n(n1)C(C(F)(F)F)CC(c1ccccc1)N2 (stereo unspecified) | 3.4
40 | NC(=O)c1ccccc1N=Cc1ccccc1[N+](=O)[O-] | -18
41 | CCCCC(=O)NNC(=O)COc1ccc(Cl)cc1 | -14.6
42 | COC(=O)C1=C(C)N(C)C(C)=C(C(=O)OC)C1c1ccc(OC)c(OC)c1 | -6.4
43 | O=C(O)COc1ccc(/C=C2/C(=O)NC(=O)N(c3ccccc3)C2=O)cc1 | -18.9
44 | COc1ccc(OC)c(CN2CCN(S(C)(=O)=O)CC2)c1 | -14
45 | CCN1C(=O)/C(=C\c2ccc(C)cc2)SC1=S | 2.3
46 | Cc1ccc(C2C(C#N)=C(N)Oc3n[nH]c(C)c32)o1 (stereo unspecified) | 2.3

Row | SMILES | displacement [%]
47 | O=c1[nH]c(O)c(C=Nc2ccc(F)c(F)c2)c(=O)[nH]1 | 166
48 | Cc1ccc(-c2nc3ncccc3o2)cc1NC(=O)c1ccc(-c2ccc(F)cc2)o1 | 2.2
49 | CCOc1ccc(CNc2cc([N+](=O)[O-])ccc2OC)cc1 | -17.2
50 | COC(=O)C1=C(C)NC2=C(C(=O)c3ccccc32)C1c1ccc(OCc2ccccc2Cl)c(Cl)c1 (stereo unspecified) | 7.8
51 | Cc1ccccc1OCCCCc1c(C)n[nH]c1C | -8
52 | COc1ccc(OC)c(NC(=O)c2ccc(CN3CCOCC3)cc2)c1 | -3.1
53 | COc1ccc(-c2c(C)nn(-c3ccccc3)c2N)cc1OC | -1.2
54 | O=C(N/N=C/c1c(Sc2ccccn2)nc2ccccn2c1=O)c1ccccc1 | 39.3
55 | CCOc1ccc(NS(=O)(=O)c2ccc(Br)cc2)cc1 | -12.9
56 | CC(=O)N1C(c2cnc(-c3ccccc3)c(C)c2)CC=C(C)C1c1ccccc1 (stereo unspecified) | -4
57 | O=C(O)c1cc(O)ccc1-c1ccc(O)cc1 | 13.8
58 | CCCCOc1ccc(NC(=O)C2CC(=O)N(c3ccc(C)cc3)C2)cc1 (stereo unspecified) | 8
59 | CN1CCN(c2nc3ccccn3c(=O)c2/C=C2\SC(=S)N(Cc3ccco3)C2=O)CC1 | -58.4
60 | Cc1cc(/C=C2\C(=O)NC(=S)N(c3ccc(Br)cc3)C2=O)c(C)n1-c1cccnc1 | 0.7
61 | COc1cc(NS(=O)(=O)c2ccc(Cl)cc2)c(OC)cc1Br | 10.5
62 | Cc1ccc(N2C(=O)CSC2c2cccc([N+](=O)[O-])c2)c(C)c1 (stereo unspecified) | 0.2
63 | O=c1oc2cc(OCc3ccccc3)c(Cl)cc2c2c1CCCC2 | -8.8
64 | COc1ccc(/C=C/C(=O)N2CCOCC2)cc1OC | 9.4
65 | O=C(NC1CCCCCC1)c1c(F)c(F)c(F)c(F)c1F | -5.3
66 | O=C(CN1C(=O)c2cccc3cccc(c23)C1=O)NCCN1CCOCC1 | 11.3
67 | COC(=O)c1n[nH]c(=O)c2ccccc12 | -5.1
68 | O=C(CSc1nnnn1-c1ccccc1)c1ccc(-c2ccccc2)cc1 | 12.2
69 | COc1cccc(OC)c1C(=O)NCc1ccc(C)cc1 | 2.7

Row | SMILES | displacement [%]
70 | CCC(C)C(C(=O)O)N1C(=O)NC2NC(=O)NC21 (stereo unspecified) | -4.7
71 | COC(=O)c1c(N)sc(C(=O)Nc2ccc(C)cc2)c1C | 2.8
72 | O=C(Nc1ccc(N2CCOCC2)cc1)c1ccc(-c2cccc(Cl)c2)o1 | -7.3
73 | COc1ccc(CCNC(=O)C2CC2c2ccccc2)cc1OC (stereo unspecified) | -0.9
74 | CCOc1ccc(N=CC2=C(O)CC(c3ccccc3)CC2=O)cc1 (stereo unspecified) | -4.6
75 | c1ccc2c(c1)ncn2CCN1CCCCC1 | 4.5
76 | C=CCN1C(=O)/C(=C\c2cc(Cl)c(OCc3ccccc3F)c(OC)c2)SC1=S | 11.5
77 | Cc1cc(C)n(S(=O)(=O)c2ccc(Br)cc2)n1 | 0.8
78 | O=[N+]([O-])c1ccc(N/N=C/c2ccc(-c3ccc(Cl)cc3)o2)cc1 | -4
79 | CCOC(=O)c1c(NC(=O)CNC(C)C)sc2c1CCC2 | -7.4
80 | Cn1c(-c2cc3ccc(O)c(CN4CCOCC4)c3oc2=O)nc2ccccc21 | 19.1
81 | COc1ccc(Cl)cc1C(=O)Nc1ccc(Cl)cc1 | -6.4
82 | N/C(=N\OC(=O)c1cccc(Br)c1)c1cccnc1 | 1.7
83 | COc1ccc(CCNCCCc2ccccc2)cc1OC | 7
84 | Cc1ccc(OCCCNC(C)(C)C)c(C(C)(C)C)c1 | 4.6
85 | CCOc1ccc2cc(C=O)c(=O)[nH]c2c1 | -8.8
86 | Cc1c(-c2ccccc2)nc2ccccc2c1C(=O)Nc1ccc(N(C)C)cc1 | 45.3
87 | O=c1oc2ccc(Br)cc2cc1-c1csc(-c2cc3cc([N+](=O)[O-])ccc3oc2=O)n1 | -5.4
88 | Cc1cc(C)n(C(=O)c2ccc(C(C)(C)C)cc2)n1 | -8.1
89 | CC(C)CC(=O)Nc1nc(-c2ccc(Cl)c(Cl)c2)cs1 | -6.5
90 | O=[N+]([O-])c1ccccc1N[C@H]1O[C@H](CO)[C@@H](O)[C@@H]1O | 6
91 | O=C(COc1ccc(Cl)cc1Cl)Nc1ccc2c(c1)oc1ccccc12 | -10.3
92 | Cc1ccc(SCCNC(=O)CN(c2cccc(Cl)c2)S(=O)(=O)c2ccccc2)cc1 | 1.6

Row | SMILES | displacement [%]
93 | O=C(CSc1ccccn1)N1c2ccccc2Sc2ccccc21 | 13.3
94 | CC1=CC(C)C(COC(=O)Nc2ccccc2)C(C)C1 (stereo unspecified) | 9.8
95 | COc1ccc(/C(O)=C2\C(=O)C(=O)N(CCc3ccccc3)C2c2cccc(F)c2)cc1 (stereo unspecified) | 7.9
96 | FC(F)(F)c1cccc(NC(=S)NCc2ccc3c(c2)OCO3)c1 | -6.8
97 | COC(=O)C(=C/C(C)=C/N1CCOCC1)C(=O)OC | 15.2
98 | Nc1nc2ccccc2n1/N=C/c1ccc([N+](=O)[O-])cc1 | 5.8
99 | NC(=O)c1cccc2c1-c1ccccc1/C2=N\O | 2.8
100 | Cn1ccnc1SC/C=C/CSc1nccn1C | -3.5
101 | CNC(=O)c1ccc(C(=O)c2cc(OC)ccc2OC)cc1 | -6.6
102 | O=[N+]([O-])c1ccccc1S(=O)(=O)Oc1ccc(/C=N/n2cnnc2)cc1 | 2.2
103 | NS(=O)(=O)c1ccc(CCNC2CC(=O)N(c3ccc(Cl)cc3)C2=O)cc1 (stereo unspecified) | -6.1
104 | O=C1C=CC(=O)N1c1ccc(Cl)cc1[N+](=O)[O-] | -9
105 | Cc1cc(F)ccc1NCc1ccncc1 | 6.3
106 | CC1(C)CC(=O)C2=C(C1)NC1=C(C(=O)CC(C)(C)C1)C2c1ccccc1 | 0.8
107 | Cc1cc(C(=O)N/N=C/c2cc(Br)ccc2O)n[nH]1 | -21
108 | CC(=O)Nc1ccc2oc(-c3ccccc3)nc2c1 | -3.7
109 | O=C1OC(c2ccccc2)=N/C1=C(\Sc1nc2ccccc2o1)c1ccccc1 | 0.3
110 | NC(=O)c1cc(NC(=O)c2cc(C(F)(F)F)cc(C(F)(F)F)c2)c(Cl)cc1Cl | -11.3
111 | COC(=O)c1cc(S(=O)(=O)N2CCCC2)c(Cl)cc1Cl | -3.2
